From the supplement of paper PMC7826260 come the findings set out here.

Some of the results follow. Each Rep nickase domain was tested in vitro on the same pool of single strands at 3 µM enzyme and 37 °C for 1 h; the strands have 90 letters, of which the middle is given. Numbers give uncut DNA relative to the enzyme-free pool, as log2; the lower, the more was cut; hits are not called. Because reads are shares of a total, they shift together; values above 0 arise when much of the pool is cut.

The first assay deals with T1, Rep nickase domain of Muscovy duck circovirus.
T1 sequence (protein, residues 1-111, tag omitted): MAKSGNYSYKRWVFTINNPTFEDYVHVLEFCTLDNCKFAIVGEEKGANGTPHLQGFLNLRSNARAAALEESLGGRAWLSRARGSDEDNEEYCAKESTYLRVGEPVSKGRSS
In words: uncleaved DNA left, log2 of reads against the no-enzyme library (log2 ratio); higher = less cleavage (more negative = more Rep cleavage of the k-mer); sequences stand for … in CTCGTCCG…ACCGGAGA
The method, then: (§1)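 A pool of 90-nt single-stranded DNAs with seven random bases just before the constant AC of the nick site (name = the seven bases) was cut by 3 µM recombinant His6-SUMO-tagged Rep nickase domain (300 nM DNA, 50 mM HEPES pH 8.0, 50 mM NaCl, 1 mM MnCl2, 1 h, 37 °C, three replicates). Uncut DNA was amplified and sequenced.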
Regarding ACATCTG, the “uncleaved DNA left (log2)” value is -0.0035.
Consider GGGAAGA, for which the “uncleaved DNA left (log2)” value stood at 0.0128.
On to CACATAG, for which the “uncleaved DNA left (log2)” value turned out to be 0.123.
With TCGATGG, the “uncleaved DNA left (log2)” value was 0.0187.
GTGACCT: the “uncleaved DNA left (log2)” value turned out to be 0.0278.
Still for that read-out and setting: the same measure for ATATCAC: 0.00617; for CCCTCTG: -0.254.
For GTAATAA, the “uncleaved DNA left (log2)” value is -0.0452.
For the sequence CAAAAGA, the “uncleaved DNA left (log2)” value is -0.00199.
On the same count and under the same terms, the same measure for GGCTGCT: -0.183; for TGCAATG: 0.0118; for GCATACC: 0.0297.
On the same count and under the same terms, the same measure for TACACCT: 0.0439; for CGTGACA: -0.0431; for ACCTGTA: -0.146.
The same measure, in the same setting: the same measure for AGTACTC: 0.0145.
For CATGCCG, the “uncleaved DNA left (log2)” value was -0.0333.
In the case of GGTGCCC, the “uncleaved DNA left (log2)” value was -0.0996.
In the case of TTTTAGA, the “uncleaved DNA left (log2)” value was 0.0838.
TCAGCCC: the “uncleaved DNA left (log2)” value was -0.0246.
Same read-out and setting: the same measure for TTAATCT: 0.0533; for ATCCGAG: -0.0437.
As for GGTAGGG, the “uncleaved DNA left (log2)” value stood at 0.0418.
On to CCCGGGT, for which the “uncleaved DNA left (log2)” value came out at 0.0651.
Regarding TTTGACC, the “uncleaved DNA left (log2)” value was 0.0648.
Consider GGGTCAG, for which the “uncleaved DNA left (log2)” value was -0.0251.
On the same count and under the same terms, the value for CCAAATT was -0.0864; that for AGATGCC was 0.0898; that for CCAACGA was 0.0444.
Same read-out and setting: the value for AATCTGG was 0.18; that for TCCACAT was 0.088; that for CCTGCCT was 0.089.
On to GCGCACT, for which the “uncleaved DNA left (log2)” value turned out to be 0.146.
With GGGAGGT, the “uncleaved DNA left (log2)” value stood at 0.0846.
Still for that read-out and setting: the same measure for TTCGTTG: -0.105.
In the case of CATAAAT, the “uncleaved DNA left (log2)” value is -0.129.
On the same count and under the same terms, the value for ATCCAAT was -0.00375; that for TCACCAG was -0.0766.
With GGGTCGC, the “uncleaved DNA left (log2)” value was -0.0328.
Consider CACAAGA, for which the “uncleaved DNA left (log2)” value was -0.0139.

Another assay concerns T2, Rep nickase domain of banana bunchy top virus.
T2 sequence (protein, residues 1-94, tag omitted): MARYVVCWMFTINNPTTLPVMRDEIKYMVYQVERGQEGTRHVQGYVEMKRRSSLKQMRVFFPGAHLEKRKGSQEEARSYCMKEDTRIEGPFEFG
The description is as above. The method, then: as §1
For ACATCTG, the “uncleaved DNA left (log2)” value was -0.0138.
With GGGAAGA, the “uncleaved DNA left (log2)” value was 0.107.
On the same count and under the same terms, the value for CACATAG was -0.0123.
With TCGATGG, the “uncleaved DNA left (log2)” value was -0.0915.
Regarding GTGACCT, the “uncleaved DNA left (log2)” value came out at 0.0273.
As for ATATCAC, the “uncleaved DNA left (log2)” value is 0.062.
The same measure, in the same setting: the value for CCCTCTG was -0.0947.
Same read-out and setting: the value for GTAATAA was 0.0268.
As to CAAAAGA, the “uncleaved DNA left (log2)” value was -0.00534.
The same measure, in the same setting: the same measure for GGCTGCT: -0.0228; for TGCAATG: 0.08; for GCATACC: -0.00398.
Consider TACACCT, for which the “uncleaved DNA left (log2)” value was -0.0991.
In the case of CGTGACA, the “uncleaved DNA left (log2)” value is 0.00113.
With ACCTGTA, the “uncleaved DNA left (log2)” value was -0.0356.
Still for that read-out and setting: the value for AGTACTC was 0.0476; that for CATGCCG was -0.0973; that for GGTGCCC was -0.108.
TTTTAGA: the “uncleaved DNA left (log2)” value was -0.0172.
Take TCAGCCC: the “uncleaved DNA left (log2)” value was -0.0673.
As to TTAATCT, the “uncleaved DNA left (log2)” value came out at 0.107.
As to ATCCGAG, the “uncleaved DNA left (log2)” value turned out to be 0.0827.
Same read-out and setting: the same measure for GGTAGGG: -0.0181.
CCCGGGT: the “uncleaved DNA left (log2)” value is -0.0599.
For the sequence TTTGACC, the “uncleaved DNA left (log2)” value turned out to be 0.0458.
Same read-out and setting: the value for GGGTCAG was 0.106; that for CCAAATT was -0.043.
For the sequence AGATGCC, the “uncleaved DNA left (log2)” value is 0.142.
On to CCAACGA, for which the “uncleaved DNA left (log2)” value turned out to be 0.101.
Take AATCTGG: the “uncleaved DNA left (log2)” value turned out to be 0.0992.
Regarding TCCACAT, the “uncleaved DNA left (log2)” value came to 0.122.
For the sequence CCTGCCT, the “uncleaved DNA left (log2)” value was determined as 0.1.
GCGCACT: the “uncleaved DNA left (log2)” value was determined as 0.0495.
Regarding GGGAGGT, the “uncleaved DNA left (log2)” value was found to be 0.0946.
On the same count and under the same terms, the same measure for TTCGTTG: -0.141; for CATAAAT: -0.321; for ATCCAAT: 0.0128.
For the sequence TCACCAG, the “uncleaved DNA left (log2)” value is -0.0518.
On to GGGTCGC, for which the “uncleaved DNA left (log2)” value is -0.0298.
For the sequence CACAAGA, the “uncleaved DNA left (log2)” value turned out to be 0.000358.

For a further assay, the system named is T3, Rep nickase domain of cabbage leaf curl virus.
T3 sequence (protein, residues 1-116, tag omitted): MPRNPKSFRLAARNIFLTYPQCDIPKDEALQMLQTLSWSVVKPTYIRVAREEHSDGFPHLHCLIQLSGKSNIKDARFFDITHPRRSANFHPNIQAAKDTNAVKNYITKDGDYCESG
The description is as above. The method, then:
as §1
ACATCTG: the “uncleaved DNA left (log2)” value is -0.711.
On to GGGAAGA, for which the “uncleaved DNA left (log2)” value came to 0.911.
The same measure, in the same setting: the value for CACATAG was -0.784.
With TCGATGG, the “uncleaved DNA left (log2)” value is 0.0881.
For GTGACCT, the “uncleaved DNA left (log2)” value was 0.411.
Same read-out and setting: the same measure for ATATCAC: -0.112.
As for CCCTCTG, the “uncleaved DNA left (log2)” value is -0.411.
Consider GTAATAA, for which the “uncleaved DNA left (log2)” value is 0.241.
On the same count and under the same terms, the same measure for CAAAAGA: -0.14; for GGCTGCT: 0.0766.
With TGCAATG, the “uncleaved DNA left (log2)” value is -0.172.
For the sequence GCATACC, the “uncleaved DNA left (log2)” value worked out at 0.00557.
TACACCT: the “uncleaved DNA left (log2)” value was -1.7.
As for CGTGACA, the “uncleaved DNA left (log2)” value is 0.416.
For the sequence ACCTGTA, the “uncleaved DNA left (log2)” value is -0.383.
As for AGTACTC, the “uncleaved DNA left (log2)” value came out at 0.0508.
For CATGCCG, the “uncleaved DNA left (log2)” value is -0.722.
Take GGTGCCC: the “uncleaved DNA left (log2)” value was 0.419.
For TTTTAGA, the “uncleaved DNA left (log2)” value came to 0.102.
Regarding TCAGCCC, the “uncleaved DNA left (log2)” value came to 0.037.
As for TTAATCT, the “uncleaved DNA left (log2)” value worked out at 0.281.
The same measure, in the same setting: the same measure for ATCCGAG: 0.829; for GGTAGGG: 0.188; for CCCGGGT: 0.223.
Turning to TTTGACC, the “uncleaved DNA left (log2)” value was found to be 0.145.
Consider GGGTCAG, for which the “uncleaved DNA left (log2)” value came out at 0.929.
On the same count and under the same terms, the value for CCAAATT was -0.136; that for AGATGCC was -0.0625; that for CCAACGA was -0.298.
Regarding AATCTGG, the “uncleaved DNA left (log2)” value is 0.287.
Take TCCACAT: the “uncleaved DNA left (log2)” value was found to be 0.404.
For the sequence CCTGCCT, the “uncleaved DNA left (log2)” value is -0.0324.
For GCGCACT, the “uncleaved DNA left (log2)” value stood at 0.112.
For the sequence GGGAGGT, the “uncleaved DNA left (log2)” value was found to be 0.867.
The same measure, in the same setting: the same measure for TTCGTTG: -0.404; for CATAAAT: -0.209.
Regarding ATCCAAT, the “uncleaved DNA left (log2)” value is -0.0197.
TCACCAG: the “uncleaved DNA left (log2)” value is -0.531.
The same measure, in the same setting: the value for GGGTCGC was 0.783; that for CACAAGA was -0.00332.
